Source: PMC4336329 (PLoS ONE, 2015)
The whole screen tested about 310,000 compounds, of which about 2,200 (0.71%) showed an effect of 50% or more. Effects have a minus sign here. Some of the results follow.

target: human ether-à-go-go-related gene (hERG) potassium channel (human, UniProt Q12809); assay: primary screen, population patch clamp on CHO cells stably expressing hERG
Sequence (Q12809 whole entry, looked up): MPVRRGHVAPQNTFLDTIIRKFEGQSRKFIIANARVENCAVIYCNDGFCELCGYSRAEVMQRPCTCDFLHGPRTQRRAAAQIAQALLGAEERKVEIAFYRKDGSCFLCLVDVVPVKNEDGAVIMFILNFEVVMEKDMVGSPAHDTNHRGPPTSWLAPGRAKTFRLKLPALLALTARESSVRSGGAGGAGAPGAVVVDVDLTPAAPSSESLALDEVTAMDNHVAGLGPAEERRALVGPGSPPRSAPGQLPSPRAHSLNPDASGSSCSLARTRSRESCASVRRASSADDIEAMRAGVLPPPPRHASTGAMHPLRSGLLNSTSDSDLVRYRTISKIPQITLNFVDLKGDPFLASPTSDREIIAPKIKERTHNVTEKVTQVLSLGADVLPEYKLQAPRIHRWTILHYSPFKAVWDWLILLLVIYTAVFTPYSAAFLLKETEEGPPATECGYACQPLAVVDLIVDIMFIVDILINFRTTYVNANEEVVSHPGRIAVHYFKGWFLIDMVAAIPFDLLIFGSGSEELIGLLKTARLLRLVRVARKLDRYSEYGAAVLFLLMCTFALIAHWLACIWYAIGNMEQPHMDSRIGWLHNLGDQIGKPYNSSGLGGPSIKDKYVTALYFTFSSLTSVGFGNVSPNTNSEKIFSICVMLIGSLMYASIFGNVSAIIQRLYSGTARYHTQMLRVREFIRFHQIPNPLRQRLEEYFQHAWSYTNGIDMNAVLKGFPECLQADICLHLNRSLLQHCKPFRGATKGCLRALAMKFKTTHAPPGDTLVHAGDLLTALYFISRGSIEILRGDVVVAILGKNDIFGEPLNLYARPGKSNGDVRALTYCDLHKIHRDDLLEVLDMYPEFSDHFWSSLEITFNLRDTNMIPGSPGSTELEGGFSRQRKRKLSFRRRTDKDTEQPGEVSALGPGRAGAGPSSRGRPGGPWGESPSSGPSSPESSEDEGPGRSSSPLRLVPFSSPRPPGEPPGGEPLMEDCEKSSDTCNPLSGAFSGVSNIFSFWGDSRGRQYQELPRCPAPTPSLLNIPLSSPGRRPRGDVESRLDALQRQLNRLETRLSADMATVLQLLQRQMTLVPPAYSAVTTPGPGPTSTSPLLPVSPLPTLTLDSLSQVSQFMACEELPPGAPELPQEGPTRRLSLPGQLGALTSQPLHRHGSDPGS

Compound	hERG current change (%, negative = inhibition) at 1uM [%]
CSCCC(NC(=O)COc1ccccc1)C(=O)OCC(=O)c1ccccc1 (stereo not shown)	21.3
O=C(CS(=O)(=O)Cc1ccccc1)N1CCN(C(=O)c2ccco2)CC1	-20.1
CCN(CC(=O)Nc1cccc(OC)c1)C(=O)c1ccc(C)s1	5.16
O=C(Nc1ccc2c(c1)OCCO2)C1CCN(c2ncccn2)CC1	19.6
Cc1c(CC(=O)O)c(=O)oc2cc3oc4c(c3cc12)CCCC4	15.3
Cc1cccc(N2C(=O)CC(N(O)c3ccccc3)C2=O)c1 (stereo not shown)	12.2
O=C(O)C(=O)O.O=C(c1ccc(F)cc1)N1CCN(C2CCCCC2)CC1	-34.4
COc1cccc(-n2c(SCC(=O)NC3CCCCC3)nc3n[nH]c(C)c3c2=N)c1	10.9
Cc1cc(C(=O)N2CCN(c3ncccn3)CC2)cs1	-10.3
COc1nnc(-c2ccc(C)c(S(=O)(=O)N(C)C)c2)c2ccccc12	-53.6
CCOc1ccc(NS(=O)(=O)c2ccc(NS(=O)(=O)c3cccs3)cc2)cc1	11.4
O=C(c1ccc(NC2=NC3CS(=O)(=O)CC3S2)cc1)N1CCN(C(=O)c2ccco2)CC1 (stereo not shown)	14.4
O=C(NCCc1ccccc1)/C(=C\c1ccc([N+](=O)[O-])cc1)NC(=O)c1ccccc1	3.17
COc1ccccc1/C=C/C(=O)NCC(=O)N=Nc1c(O)[nH]c2ccccc12	9.17
Cc1nn(C)c(Sc2ccccc2N)c1[N+](=O)[O-]	10.8
CCOc1ccc(C(=O)OC2CCCN(C)C2)cc1.Cl (stereo not shown)	-1.27
NS(=O)(=O)c1cccc(NS(=O)(=O)c2ccc3ccccc3c2)c1	10.1
C/C(=C(\C#N)C(=O)NC1CCCCC1)N(C)C	11
Cn1cccc1C(=O)NC(=O)CSc1nnc(C2CC2)n1-c1ccccc1	8.24
COC(=O)c1sc(NC(=O)CSc2nnnn2C)nc1C	14.7
CCC(=O)c1ccc(OCC(=O)Nc2ccc(N3CCCCC3)cc2)cc1	14.4
O=C(Cc1ccccc1)NCC(=O)N/N=C/c1ccc(Cl)cc1	5.64
CCOC(=O)C1CCN(C(=O)CSC2=NCCS2)CC1	8.93

Compound	hERG current change (%, negative = inhibition) at 1uM [%]
CN(C(=O)c1ccco1)c1ccccc1C(=O)O	12.4
Cc1c(NC=C(C#N)C#N)c(=O)n(-c2ccccc2)n1C	25.3
O=C(CSc1ccccn1)N1CCN(c2ccc(Cl)cc2)CC1	4.73
O=C(NCc1ccncc1)C1CCN(S(=O)(=O)Cc2ccccc2)CC1	-1.64
O=C(Nc1ccc2c(c1)OCO2)c1cccc(S(=O)(=O)N2CCOCC2)c1	7.59
c1ccc(-c2nnc(-c3ccncc3)o2)cc1	3.01
Cc1cccnc1NC(=O)C1CCCN(S(=O)(=O)c2ccc3c(c2)oc(=O)n3C)C1 (stereo not shown)	8.11
Fc1ccc(C2C3=C(Nc4ncnn42)c2ccccc2OC3c2ccncc2)cc1 (stereo not shown)	-0.151
Cc1cc2oc(=O)cc(CSc3nnc(-c4cccs4)o3)c2cc1C(C)C	1.74
CN1C(=O)C(O)(CC(=O)/C=C/C=C/c2ccccc2)c2ccccc21 (stereo not shown)	5.72
COc1ccc(/C=C2\Sc3ccc(C(=O)NC4CC4)cc3N(C)C2=O)cc1OC	-0.0644
COc1ccc(S(=O)(=O)Nc2nnc(C(C)C)s2)cc1	-3.29
NS(=O)(=O)c1ccc(CCN=Cc2ccccc2O)cc1	9.29
COC1OC(CO)C(O)C(O)C1O (stereo not shown)	2.17
CC(C)c1ccc(NC(=O)COC(=O)COc2ccccc2)cc1	4.59
COc1ccc(S(=O)(=O)Nc2ccc(S(=O)(=O)Nc3nc(C)cc(C)n3)cc2)cc1OC	8.07
CCc1nn(CC(=O)NCCCN2CCN(C)CC2)c(=O)c2cc3sc(C)cc3n12	12.2
CCOC(=O)c1c(C)[nH]c(C)c1S(=O)(=O)N(C)CC(=O)Nc1cccc(F)c1	8.28
CN1c2ccccc2N(C)C1(C)c1ccccc1	3.14
CCc1cccc(Nc2c3c(nc4ncnn24)CCC3)c1	16.1
COc1cccc(CC(=O)NC2CCSc3ccccc32)c1 (stereo not shown)	16.2
CC(=O)NC(NC(=S)Nc1ccc(C)cc1C)C(Cl)(Cl)Cl (stereo not shown)	8.31
CCOC(=O)C1(Cc2ccc(OC)cc2)CCN(C(=O)C2=CCCC2)CC1	4.08

Compound	hERG current change (%, negative = inhibition) at 1uM [%]
CCOC(=O)CSc1nc(N)cc(=O)[nH]1	-1.24
O=C(COc1cccnc1[N+](=O)[O-])N1CCc2ccccc2C1	7.49
CCN(CC)C(=O)N1CCC(NC(=O)c2ccc(C(C)(C)C)cc2)CC1	8.5
CC(C(=O)Nc1ccc(O)cc1C(=O)O)N1C(=O)/C(=C\c2cccs2)SC1=S (stereo not shown)	14.9
Cc1cc(C)n(-c2ccc(F)cc2)c(=O)c1C#N	19.5
CC(O)(C#CCN1CCCCC1)c1ccccc1 (stereo not shown)	10.4
O=C(O)CCCCCNC(=O)Nc1ccc2c(c1)OCCO2	17.5
Cc1ccc(S(=O)(=O)Nc2cc3c4c(c2)CCC(=O)N4CCC3)cc1	12.3
COC(=O)CC1SC(=O)NC1=Nc1ccc(O)cc1 (stereo not shown)	12.9
O=C(Cc1cccs1)N(CC1CCCO1)C1(C(=O)NC2CCCC2)CCCCC1 (stereo not shown)	7.33
CCN(CC)C(=O)C1CCCN(Cc2ccc(N(C)C)cc2)C1 (stereo not shown)	-2.31
COc1ccc(S(=O)(=O)N(C)CC(=O)N2CCC(C(N)=O)CC2)cc1Cl	0.633
CCC(=O)Nc1cccc(C(=O)N(Cc2ccccc2)Cc2ccccc2)c1	13.4
CC1=NNC(=O)C1CCC(=O)N/N=C/C(Br)=C/c1ccccc1 (stereo not shown)	10.2
CCOC(=O)CSc1nc2ccccc2n1CC(=O)N(C(C)C)C(C)C	7.55
CC(C)(C)NC(=O)c1cccnc1Sc1ccccc1	11.2
O=C(CN1CCCCC1)N/N=C/c1ccccc1Br	5.43
CC1CCC/C(=N/NC(=O)c2ccccc2-n2cccc2)C1 (stereo not shown)	6.77
NC(=O)[C@H](Cc1cc2ccccc2s1)NC(=O)[C@@H]1CC2(CC(c3cccc(NC(=O)[C@@H]4CCC(=O)N4)c3)=NO2)CN1C(=O)c1ccccc1 (stereo partly shown)	0.274
COCCNS(=O)(=O)c1cc(-c2nn(C)c(=O)c3ccccc23)ccc1C	7.15
CCOc1ncccc1C(=O)Nc1cccc(Cl)c1Cl	6.95
O=C(CSc1ccccc1)NCc1ccco1	2.28
CCn1nnc(NC(=O)c2ccc(C(C)(C)C)cc2)n1	5.34

Compound	hERG current change (%, negative = inhibition) at 1uM [%]
Cc1nnc(SCC(=O)NC2CCCCCC2)n1N	8.19
Cc1ccc(NC(=O)N[C@H](C(=O)O)C(C)C)c(C)c1	5.35
Cc1nnc(NC(=O)CCCCCN2C(=O)C3C4C=CC(C4)C3C2=O)s1 (stereo not shown)	-4.44
Cc1ccccc1C(=O)NC1CCN(C(=O)NCc2ccccc2)CC1	6.97
O=C1C2CCCN2C(c2cccc(F)c2)N1c1cccc(Cl)c1 (stereo not shown)	0.302
COc1cccc(-n2c(SCC(=O)N3c4ccccc4CC3C)nnc2-c2ccco2)c1 (stereo not shown)	4.2
COc1cc(CNCCCN2CCOCC2)c(Br)cc1OC(C)C.Cl	14
Cc1cc(C(=O)COC(=O)c2ccc(O)cc2)c(C)n1CC1CCCO1 (stereo not shown)	13.9
Cc1c(C(=O)NCc2ccc(S(N)(=O)=O)cc2)oc2ccc(Cl)cc12	10.4
COc1ccc(/C(N)=N/O)c(OC)c1	8.27
CCc1cc2c(cc3c(=O)n(CC(=O)N4CCN(c5ccccn5)CC4)nc(CC)n32)s1	4.88
CCNC(=S)N1CCN(CCNC2=CC(=O)CC(C)(C)C2)CC1	9.53
O=C(Nc1ccc(S(=O)(=O)N2CCOCC2)cc1)c1ccc(S(=O)(=O)N2CCOCC2)cc1	14.1
CC1CCc2c(sc(NC(=O)CCc3nc4ccccc4c(=O)[nH]3)c2C#N)C1 (stereo not shown)	7.39
CC(C)N1CCC(N2CCN(C3CCCCC3)CC2CCO)CC1 (stereo not shown)	16
N#CCc1c(C#N)c(N)nc(N2CCOCC2)c1C#N	3.29
CCOc1ccc(N(Cc2cc3cc(OC)ccc3[nH]c2=O)S(C)(=O)=O)cc1	13.4
O=C(CN1C(=O)c2ccc([N+](=O)[O-])cc2C1=O)NC1CCCCCC1	14.3
CC(C)CCn1nnnc1C(c1ccccc1)N1CCC(C(N)=O)CC1 (stereo not shown)	10.9
Nc1ccc(Nc2nc3ccccc3[nH]2)cc1	10.3
Br.Clc1ccc2nc(CN3CCCCC3)cn2c1	-8.79
CCC(C)(C)NC(=O)CN(C(=O)CCC(=O)Nc1nccs1)c1ccc2c(c1)OCCO2	12.4
